Among all 52,000 compounds or so, about 4,300 (8.3%) were called active. Rule as the data show it: active = survival mostly below about 52% (no sharp cut-off); inactive = mostly above about 56%. Some of the results follow.
system: DeltatarO mutant; test: S. aureus survival, RN4220 and DeltatarO strains – OD600, teichoic acid synthesis inhibitors, primary screen (AID 463173); conditions: S. aureus RN4220 wild type/DeltatarO growth, OD600, 18 h, hits give low values, screened at 18.75 µg/mL (by protocol)

Compound | survival
O=C(Nc1cc2c(cc1C(=O)c1ccccc1Br)OCCO2)c1cccc(Cl)c1 | inactive: 58%
O=C(c1cc2c(=O)oc3ccccc3c2s1)N1CCN(c2ccccc2)CC1 | inactive: 169%
COc1ccc2c(c1)c1c(c(=O)n(-c3cccc(C)c3)c(=O)n1Cc1cccc(Cl)c1)n2C | inactive: 84%
COc1ccccc1CNc1ncnc2c1cnn2-c1ccc(C)cc1 | inactive: 102%
COc1ccc(C(C(=O)NC2CCCCC2)N(Cc2ccc3c(c2)OCO3)C(=O)c2cnccn2)cc1OC (configuration not stated) | inactive: 82%
COc1ccc(-c2nn(-c3ccccc3)cc2C2NC(=O)NC(C)=C2C(=O)OC(C)C)cc1OC (configuration not stated) | inactive: 80%
Cc1ccc(-c2noc(-c3nnn(-c4cccc(C(F)(F)F)c4)c3N)n2)cc1 | inactive: 90%
Cc1ccc(-n2nc3c(N4CCC(C(=O)NCCc5ccccc5C)CC4)nnc(C)c3c2C)cc1 | inactive: 77%
CCCC(CCC)C(=O)Nc1cccc(-c2nc3cccnc3s2)c1 | inactive: 92%
CCc1ccccc1NC(=O)N1CCC2(CC1)Oc1ccccc1C(=O)N2Cc1ccccc1F | inactive: 83%
CCOc1ccc(C(=O)NCC(c2ccc3c(c2)OCO3)N2CCN(c3ccc(F)cc3)CC2)cc1 (configuration not stated) | inactive: 87%
CC(=O)Nc1ccc(NS(=O)(=O)c2ccc3[nH]c4c(c3c2)CCCCC4)cc1 | inactive: 84%
CCC(=O)Nc1ccc(-c2nn3c(CC)nnc3s2)cc1 | inactive: 100%
CC(C)C(=O)N1c2nc(C(C)C)nn2C2(CCCCC2)[C@@H]2CCCC[C@@H]21 | inactive: 69%
Cc1ccc(Nc2nc3ccccc3c3nnc(C)n23)cc1Cl | inactive: 63%
Cc1cc(C)c2c(=O)cc(CSc3nnc(-c4ccccc4)n3C)[nH]c2c1 | inactive: 95%
COc1cc(-c2nnc(SCC(=O)Oc3ccccc3)o2)cc(OC)c1OC | inactive: 81%
Nc1nncn1C(=O)COc1ccc(Cl)cc1 | inactive: 74%
CC1CN(Cn2[nH]c(=O)ccc2=O)CC(C)O1 (configuration not stated) | inactive: 106%

Compound | survival
Cc1ccc(CN2CCN(C3CCN(C(=O)c4ccc(C)cc4)CC3)C(=O)C2=O)cc1 | inactive: 78%
CCOC(=O)c1cnc2cc(-c3ccc(C)cc3)nn2c1C | inactive: 74%
CC(C)(C)c1cc(C(C)(C)C)c2oc(=O)c(-c3nc4ccc(C(=O)O)cc4[nH]3)cc2c1 | inactive: 72%
CCOC(=O)c1ccccc1NC(=O)CSc1cc(C)[nH]c(=O)n1 | inactive: 88%
COc1ccc(Cl)cc1NC(=O)CCN1C(=O)c2ccccc2Sc2ncccc21 | inactive: 68%
CC(=O)c1cccc(NC(=O)CN2C(=O)c3cccnc3Sc3ccccc32)c1 | inactive: 82%
O=C(Nc1ccc(N2C(=O)C=CC2=O)cc1Cl)c1ccco1 | inactive: 100%
Cc1ccc(C)c(Cn2c(=O)n(Cc3ccco3)c(=O)c3oc4ccccc4c32)c1 | inactive: 97%
CCc1ccc(NC(=O)Cn2c(=O)n(-c3ccccc3)c(=O)c3ccc(C(=O)NCc4ccc5c(c4)OCO5)cc32)cc1 | inactive: 112%
CCc1ccccc1NC(=O)c1sc2nc3n(c(=O)c2c1C)CCC3 | inactive: 75%
COc1cc(CN(C(=O)c2ccc(OC(C)C)cc2)C2CCS(=O)(=O)C2)cc(OC)c1OC (configuration not stated) | inactive: 88%
CCc1ccccc1Nc1ncnc2c1cnn2-c1ccc(Cl)cc1 | inactive: 69%
CSCCC(NS(=O)(=O)c1cccs1)C(=O)Nc1ccc(C)c(Cl)c1 (configuration not stated) | inactive: 74%
CCOc1ccc(CCNC(=O)c2ccc(CS(=O)(=O)c3ccccc3C)o2)cc1OCC | inactive: 61%
CC(=O)c1ccc(NC(=O)CSc2nnc(NC(=O)Nc3ccccc3)s2)cc1 | inactive: 76%
COc1ccc(Cl)cc1NC(=O)c1ncn(-c2ccccc2)n1 | inactive: 53%
CCc1ccc(-c2cc(C)no2)cc1S(=O)(=O)Nc1ccc(C)cn1 | inactive: 55%
Cc1cccc(-c2nnn3c2nc(NCc2ccccc2)c2ccccc23)c1 | inactive: 97%
CNC(=O)C1CCN(Cc2cc3ccccc3n2Cc2cccc(C)c2)CC1 | inactive: 76%

Compound | survival
CC(C)CCNC(=O)C1CCN(S(=O)(=O)c2cccc3nsnc23)CC1 | inactive: 94%
Cc1ccccc1OCc1ccc(-c2nc(C#N)c(N3CCN(c4ccccc4)CC3)o2)o1 | inactive: 91%
O=C(NCCCc1nc2ccccc2n1Cc1ccccc1)C1CCCCC1 | inactive: 83%
CCOc1ccc(CNC(=O)c2ccc(NC(=O)N3CCSc4ncccc43)cc2)cc1OC | inactive: 84%
COc1cccc(Cn2c(C)c(CNCc3ccccc3Cl)c(C(=O)O)c2C)c1 | inactive: 77%
CN(C)c1cc2c(cc1NC(=O)c1ccc(F)cc1)n(C)c(=O)n2C | inactive: 104%
CC(=O)Nc1ccc(/C(C)=N/NC2=NCCN2)cc1Br | inactive: 88%
CC(C)N(Cc1ccccc1)C(=O)CN1C(=O)COc2ccc(S(=O)(=O)N3CCCCCC3)cc21 | inactive: 88%
CCN(C(=O)c1cnc(N2CCOCC2)c2ccccc12)c1cc(C)ccc1C | inactive: 94%
COC(=O)C1C(=O)C2=C(CC1C)Nc1ccccc1NC2c1cc(F)ccc1F (configuration not stated) | inactive: 82%
O=C(O)c1ccc2c(c1)N(Cc1ccc(F)cc1Cl)C(=O)c1ccccc1S2 | inactive: 67%
COc1ccc(CCNC(=O)c2cc(S(=O)(=O)N3CCCC(C)C3)cn2C)cc1OC (configuration not stated) | active: 47%
COc1ccc(NC(=O)CCS(=O)(=O)c2nc(-c3ccc4c(c3)OCO4)cc(C(F)(F)F)n2)c(OC)c1 | inactive: 91%
Cc1cc2ccccc2n2c(SCC(=O)Nc3cccc(C(F)(F)F)c3)nnc12 | inactive: 67%
CCOC(=O)c1ccc(NC(=O)CSc2nccn2Cc2ccc(OC)cc2)cc1 | inactive: 79%
Cc1cc(C)cc(C(=O)Nc2nnc3n2CCS3)c1 | inactive: 77%
CC(=O)c1cccc(NC(=O)c2c(C)nn(-c3ccc(F)cc3)c2-n2cccc2)c1 | inactive: 112%
COC(=O)c1cc(NC(=O)c2ccc3c(c2)N(Cc2cccc(Cl)c2)C(=O)c2ccccc2S3=O)cc(C(=O)OC)c1 (configuration not stated) | inactive: 73%
CCCCCN1C(C(=O)c2ccccc2)=C(NC(C)=O)c2ccccc2S1(=O)=O | inactive: 58%
